Measurements taken from the supplement of paper PMC8728848.
This is one part of the list.

Legend:
Test in all cases: glycan array binding signal (z-score within array); higher = stronger binding
Details in all cases: glycan notation: IUPAC condensed, linker removed
[1] = biological target: Neu5Ac(a2-6)Gal(b1-4)GlcNAc(b1-2)Man(a1-3)[GlcNAc(b1-4)][Neu5Ac(a2-6)Gal(b1-4)GlcNAc(b1-2)Man(a1-6)]Man(b1-4)GlcNAc(b1-4)GlcNAc
Method in brief: (§1)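 Glycan array data were curated from 3228 arrays in the Consortium for Functional Glycomics database and kept only where the protein sequence was available. Glycan names were converted to IUPAC-condensed notation, and columns mapping to the same glycan were averaged. The binding signal is a within-array Z-score, averaged across arrays of the same protein sequence at different concentrations or buffers and across linkers. Negative Z-scores can be read as non-binding.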

[2] = biological target: Neu5Ac(a2-6)Gal(b1-4)GlcNAc(b1-2)Man(a1-3)[Man(a1-6)]Man(b1-4)GlcNAc(b1-4)GlcNAc
Method in brief: as §1

[3] = biological target: Neu5Ac(a2-6)Gal(b1-4)GlcNAc(b1-2)Man(a1-3)[Neu5Ac(a2-3)Gal(b1-4)GlcNAc(b1-2)Man(a1-6)]Man(b1-4)GlcNAc(b1-4)GlcNAc
Method in brief: as §1

[4] = biological target: Neu5Ac(a2-6)Gal(b1-4)GlcNAc(b1-2)Man(a1-3)[Neu5Ac(a2-6)Gal(b1-4)GlcNAc(b1-2)Man(a1-6)]Man(b1-4)GlcNAc(b1-4)GlcNAc
Method in brief: as §1

[5] = biological target: Neu5Ac(a2-6)Gal(b1-4)GlcNAc(b1-2)Man(a1-3)[Neu5Ac(a2-6)Gal(b1-4)GlcNAc(b1-2)Man(a1-6)]Man(b1-4)GlcNAc(b1-4)[Fuc(a1-6)]GlcNAc
Method in brief: as §1

[6] = biological target: Neu5Ac(a2-6)Gal(b1-4)GlcNAc(b1-2)Man(a1-6)Man(b1-4)GlcNAc(b1-4)GlcNAc
Method in brief: as §1

[7] = biological target: Neu5Ac(a2-6)Gal(b1-4)GlcNAc(b1-2)Man(a1-6)[Gal(b1-4)GlcNAc(b1-2)Man(a1-3)]Man(b1-4)GlcNAc(b1-4)GlcNAc
Method in brief: as §1

[8] = biological target: Neu5Ac(a2-6)Gal(b1-4)GlcNAc(b1-2)Man(a1-6)[GlcNAc(b1-2)Man(a1-3)]Man(b1-4)GlcNAc(b1-4)GlcNAc
Method in brief: as §1

[9] = biological target: Neu5Ac(a2-6)Gal(b1-4)GlcNAc(b1-2)Man(a1-6)[Man(a1-3)]Man(b1-4)GlcNAc(b1-4)GlcNAc
Method in brief: as §1

[10] = biological target: Neu5Ac(a2-6)Gal(b1-4)GlcNAc(b1-2)[Neu5Ac(a2-6)Gal(b1-4)GlcNAc(b1-4)]Man(a1-3)[GlcNAc(b1-4)][Neu5Ac(a2-6)Gal(b1-4)GlcNAc(b1-2)[Neu5Ac(a2-6)Gal(b1-4)GlcNAc(b1-6)]Man(a1-6)]Man(b1-4)GlcNAc(b1-4)GlcNAc
Method in brief: as §1

[11] = biological target: Neu5Ac(a2-6)Gal(b1-4)GlcNAc(b1-2)[Neu5Ac(a2-6)Gal(b1-4)GlcNAc(b1-4)]Man(a1-3)[GlcNAc(b1-4)][Neu5Ac(a2-6)Gal(b1-4)GlcNAc(b1-4)Man(a1-6)]Man(b1-4)GlcNAc(b1-4)GlcNAc
Method in brief: as §1

[12] = biological target: Neu5Ac(a2-6)Gal(b1-4)GlcNAc(b1-2)[Neu5Ac(a2-6)Gal(b1-4)GlcNAc(b1-6)]Man(a1-6)[Neu5Ac(a2-6)Gal(b1-4)GlcNAc(b1-2)Man(a1-3)][GlcNAc(b1-4)]Man(b1-4)GlcNAc(b1-4)GlcNAc
Method in brief: as §1

[13] = biological target: Neu5Ac(a2-6)Gal(b1-4)GlcNAc(b1-3)Gal(b1-3)GlcNAc
Method in brief: as §1

[14] = biological target: Neu5Ac(a2-6)Gal(b1-4)GlcNAc(b1-3)Gal(b1-4)GlcNAc
Method in brief: as §1

[15] = biological target: Neu5Ac(a2-6)Gal(b1-4)GlcNAc(b1-3)Gal(b1-4)GlcNAc(b1-2)Man(a1-3)[Neu5Ac(a2-6)Gal(b1-4)GlcNAc(b1-3)Gal(b1-4)GlcNAc(b1-2)Man(a1-6)]GalNAc
Method in brief: as §1

[16] = biological target: Neu5Ac(a2-6)Gal(b1-4)GlcNAc(b1-3)Gal(b1-4)GlcNAc(b1-3)Gal(b1-4)GlcNAc
Method in brief: as §1

[17] = biological target: Neu5Ac(a2-6)Gal(b1-4)GlcNAc(b1-3)Gal(b1-4)GlcNAc(b1-3)Gal(b1-4)GlcNAc(b1-2)Man(a1-3)[Neu5Ac(a2-6)Gal(b1-4)GlcNAc(b1-3)Gal(b1-4)GlcNAc(b1-3)Gal(b1-4)GlcNAc(b1-2)Man(a1-6)]GalNAc
Method in brief: as §1

[18] = biological target: Neu5Ac(a2-6)Gal(b1-4)GlcNAc(b1-3)Gal(b1-4)GlcNAc(b1-3)GalNAc
Method in brief: as §1

[19] = biological target: Neu5Ac(a2-6)Gal(b1-4)GlcNAc(b1-3)Gal(b1-4)GlcNAc(b1-3)[Neu5Ac(a2-6)Gal(b1-4)GlcNAc(b1-3)Gal(b1-4)GlcNAc(b1-6)]GalNAc
Method in brief: as §1

[20] = biological target: Neu5Ac(a2-6)Gal(b1-4)GlcNAc(b1-3)Gal(b1-4)GlcNAc(b1-6)[Gal(b1-3)]GalNAc
Method in brief: as §1

[21] = biological target: Neu5Ac(a2-6)Gal(b1-4)GlcNAc(b1-3)Gal(b1-4)[Fuc(a1-3)]GlcNAc(b1-3)Gal(b1-4)[Fuc(a1-3)]GlcNAc
Method in brief: as §1

[22] = biological target: Neu5Ac(a2-6)Gal(b1-4)GlcNAc(b1-3)GalNAc
Method in brief: as §1

[23] = biological target: Neu5Ac(a2-6)Gal(b1-4)GlcNAc(b1-3)[Neu5Ac(a2-6)Gal(b1-4)GlcNAc(b1-6)]GalNAc
Method in brief: as §1

[24] = biological target: Neu5Ac(a2-6)Gal(b1-4)GlcNAc(b1-6)GalNAc
Method in brief: as §1

[25] = biological target: Neu5Ac(a2-6)Gal(b1-4)GlcNAc(b1-6)[Gal(b1-3)GlcNAc(b1-3)]Gal(b1-4)Glc
Method in brief: as §1

[26] = biological target: Neu5Ac(a2-6)Gal(b1-4)GlcNAc(b1-6)[Gal(b1-3)]GalNAc
Method in brief: as §1

[27] = biological target: Neu5Ac(a2-6)Gal(b1-4)GlcNAc6S
Method in brief: as §1

Neu5Ac(a2-6)GalNAc = biological target: Neu5Ac(a2-6)GalNAc
Method in brief: as §1

[28] = biological target: Neu5Ac(a2-6)GalNAc(b1-4)GlcNAc
Method in brief: as §1

[29] = biological target: Neu5Ac(a2-6)GalNAc(b1-4)GlcNAc6S
Method in brief: as §1

[30] = biological target: Neu5Ac(a2-6)GlcNAc(b1-4)GlcNAc
Method in brief: as §1

B1: Gal-9-hFc (Mus musculus), O08573-2 (protein)
chain: MALFSAQSPYINPIIPFTGPIQGGLQEGLQVTLQGTTKSFAQRFVVNFQNSFNGNDIAFHFNPRFEEGGYVVCNTKQNGQWGPEERKMQMPFQKGMPFELCFLVQRSEFKVMVNKKFFVQYQHRVPYHLVDTIAVSGCLKLSFITFQTQNFRPAHQAPMAQTTIHMVHSTPGQMFSTPGIPPVVYPTPAYTIPFYTPIPNGLYPSKSIMISGNVLPDATRFHINLRCGGDIAFHLNPRFNENAVVRNTQINNSWGQEERSLLGRMPFSRGQSFSVWIICEGHCFKVAVNGQHMCEYYHRLKNLQDINTLEVAGDIQLTHVQT
Q: What does the source list for B1?
A: glycan array binding signal (z-score) [1]: -0.272; glycan array binding signal (z-score) [2]: -0.184; glycan array binding signal (z-score) [3]: -0.448; glycan array binding signal (z-score) [4]: -0.491; glycan array binding signal (z-score) [5]: -0.496; glycan array binding signal (z-score) [6]: -0.192; glycan array binding signal (z-score) [7]: -0.3; glycan array binding signal (z-score) [8]: -0.384; glycan array binding signal (z-score) [9]: -0.152; glycan array binding signal (z-score) [10]: -0.332; glycan array binding signal (z-score) [11]: -0.361; glycan array binding signal (z-score) [12]: -0.34; glycan array binding signal (z-score) [13]: -0.307; glycan array binding signal (z-score) [14]: -0.506; glycan array binding signal (z-score) [15]: -0.17; glycan array binding signal (z-score) [16]: -0.424; glycan array binding signal (z-score) [17]: 1.19; glycan array binding signal (z-score) [18]: -0.341; glycan array binding signal (z-score) [19]: 0.099; glycan array binding signal (z-score) [20]: -0.199; glycan array binding signal (z-score) [21]: -0.478; glycan array binding signal (z-score) [22]: -0.362; glycan array binding signal (z-score) [23]: -0.194; glycan array binding signal (z-score) [24]: 1.04; glycan array binding signal (z-score) [25]: -0.501; glycan array binding signal (z-score) [26]: -0.318; glycan array binding signal (z-score) [27]: -0.452; glycan array binding signal (z-score) (Neu5Ac(a2-6)GalNAc): -0.573; glycan array binding signal (z-score) [28]: -0.667; glycan array binding signal (z-score) [29]: -0.128; glycan array binding signal (z-score) [30]: -0.408
